Measured values published in ChEMBL document CHEMBL4888484, “Replenishing the malaria drug discovery pipeline: Screening and hit evaluation of the MMV Hit Generation Library 1 (HGL1) against asexual blood stage Plasmodium falciparum ,using a nano luciferase reporter read-out” (2022).
Out of some 150,000 compounds screened, about 540 (0.36%) showed an effect of 50% or more. The list shows a part of the results.

Each compound was assayed on Plasmodium falciparum (assay: Primary screen in NF54 nanoGlo assay, in single point, at 2uM, 72h; a lower Z score goes with more inhibition). Conditions: timepoint 72 hour.
Type: functional, Erythrocyte

Compound | % Inhibition | Z score
C[C@@H](c1nnc(Nc2ccn(Cc3ccccc3Cl)n2)s1)n1cc(Br)cn1 | -5% | 0.67
O=C(c1ccccn1)N1CCN(Cc2ccncc2)[C@@H]2CS(=O)(=O)C[C@@H]21 | -7% | 0.76
COc1ccc(CNC(=O)N2CCC(Cc3ccccc3F)CC2)c(OC)c1 | -10% | 1.75
CC(C)OCCC(=O)N1CC2(CCC2)[C@H]1c1ccccc1 | -3% | 0.62
Cc1cc(S(=O)(=O)N2C[C@H](C(C)C)[C@@H](N(C)C)C2)c(C)s1 | 1% | -0.22
Cn1cc(CNC(=O)Nc2ccc(=O)n(Cc3ccc(Cl)c(Cl)c3)c2)cn1 | -3% | 0.27
COc1cc(CN2CCC(CCC(=O)NCc3ccc(F)cc3)CC2)cc(Cl)c1O | -14% | 1.27
O=C(C1CCC1)N1Cc2ccccc2C1 | -9% | 1.1
Cc1ccc2c(C(=O)N[C@H]3CCCc4cnccc43)cnn2c1C | -3% | 0.35
CN1C(=O)[C@@H](c2ccccc2)CC12CCN(C(=O)CNC(N)=O)CC2 | -18% | 1.88
Cc1ccc([C@@H]2Cn3nnc(C(=O)N4CCC(C(=O)Nc5ccc(Cl)c(C)c5)CC4)c3CO2)cc1 | -10% | 0.95
CCCC(CCC)C(=O)Nc1ccc(F)c(Cl)c1 | -34% | 4.04
FC(F)(F)c1ccc(N2CCc3nocc3C2)nc1 | -4% | 0.63
O=C(NC(Cc1ccncc1)[C@H]1C[C@@H](O)C1)c1ncn[nH]1 (some centres undefined) | 17% | -2.23
Cc1cc(C)c(S(=O)(=O)N2CCC3(CC2)NCCN=C3NCc2ccccc2C)cc1C | -5% | 0.61
Cc1cc(C(=O)N[C@H]2CCN(Cc3noc(C4CCCC4)n3)C[C@@H]2O)no1 | -6% | 1.1
Cc1n[nH]c(=O)c(C(=O)N2CCc3cc(-c4ccccc4)oc3C2)c1C | -8% | 1.5
COc1ccc(C(=O)N2CC(F)(F)C[C@H]2Cn2cc(C(=O)N3CCOCC3)nn2)cn1 | -7% | 1.12
N#Cc1cccc(C(F)(F)F)c1Br | -8% | 1.03
COCc1nc(N[C@@H]2CCc3ccccc32)cc([C@H]2C[C@H](N)C2)n1 | -14% | 1.68
O=C(O)C1CC[C@@H](c2ccccc2)N1C(=O)Cc1ccccc1OC(F)F (some centres undefined) | -2% | 0.18

Compound | % Inhibition | Z score
CCS(=O)(=O)N1CCC[C@H](c2nnc(C(=O)Nc3cccc(Cl)c3)s2)C1 | -6% | 0.92
CC1CC(NC(=O)N2CCCCO2)CC(C)O1 (centres undefined) | -3% | 0.28
c1ccc2c(CN[C@H]3CCCNC3)cccc2c1 | 2% | -0.3
O=C(C[C@H]1COCCN1CCc1ccccc1)NCc1cccc(Cl)c1 | -14% | 1.32
CN(Cc1ccccc1)c1ncccc1CNc1ncccc1F | -8% | 0.99
OCC[C@H]1CN(C2CCN(c3ccc(Cl)cc3)CC2)CCN1CCc1ccccc1 | -16% | 2.27
CCN(CC)C(=O)[C@@H]1CCC[C@@H](NC(=O)c2ccc(OC)cc2)CN(C)C(=O)C1 | 0% | 0.02
Cc1noc(CN(C)Cc2cc3cc4c(cc3nc2-c2ccc(F)cc2)OCO4)n1 | -8% | 1.55
CO[C@H]1CN(C(=O)c2cc(Br)cn2C)C[C@@H]1O | 3% | -0.59
COc1cc(C)n(CCNC(=O)c2snnc2C)c(=O)c1 | -16% | 3.04
COCCCN1CCN(C(=O)c2cc(C)nc3cc(Cl)ccc23)CC1 | -1% | 0.16
Cc1nccn1-c1ccnc(C(=O)NCc2cn(C(C)C)nn2)c1 | -6% | 1.18
COCC[C@]1(c2noc(C)n2)CCCN(S(=O)(=O)c2cc(F)ccc2C)C1 | -5% | 0.78
Cc1cc(NC(=O)C(C)S(=O)(=O)C(C)c2ccccc2F)on1 (centres undefined) | 11% | -1.09
O=C(Cn1nnnc1-c1ccsc1)N1CCC(Cc2ccccc2)CC1 | -1% | 0.13
Cc1nc2c(c(N3CC(C)CC(C(=O)O)C3)n1)CCCC2 (centres undefined) | -2% | 0.19
COc1cncc(-c2cccc3[nH]ccc23)c1 | -10% | 0.94
O=C(CCN1C(=O)c2ccccc2C1=O)Oc1cccc2cccnc12 | -11% | 1.48
COCC[C@H]1CN(C(=O)Nc2cccc(OCc3ccccc3)c2)CCO1 | 5% | -0.98
Cn1nc(C(=O)N2CCCC[C@H]2c2nc3ccccc3o2)cc1C1CC1 | 5% | -0.61
CCC[C@H]1CN(C(=O)c2ccc(C)[nH]c2=O)C[C@@H]1NS(C)(=O)=O | 1% | -0.12
